Test results from PubChem BioAssay AID1347417 (National Center for Advancing Translational Sciences (NCATS), 2020).
Screen size: about 120,000 compounds; about 5,300 (4.4%) were called active. This list was built around the results that the source calls inconclusive (neither active nor inactive); the mix of calls is not that of the screen. Calls follow the shape of the dose curve; as a rule, active = well fitted inhibition curve with a large enough effect; inconclusive = small, poorly fitted or top-dose-only effect; inactive = no such curve, though single readings can be large or run the other way. Potencies of inconclusive entries are doubtful fits and often do not repeat.
Potency is read from the fitted curve at half-maximal effect; tags tell the direction and shape of the fitted curve.

Assay: qHTS Primary assay for Inhibitors of Plasmodium falciparum Dd2 growth in vitro; also: nearly all actives have a fitted effect of over 65% in size;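 as to activity, negative = inhibition: plate controls were DMSO vehicle for no effect and reference drug for full effect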
Settings: P. falciparum Dd2 growth, SYBR Green, 72 h; activity, negative = inhibition: at 28.9 µM (top of the series) unless noted; series mostly up to 28.9 µM
Procedure, shortened: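 Infected erythrocytes (Dd2, 0.3% parasitemia, 2.5% hematocrit final) are added to compound in RPMI-1640/Albumax II medium, grown 72 h at 37C in low oxygen, then lysed with saponin/Triton-X containing SYBR Green and read by fluorescence.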
With `O=C(Nc1cccc(-n2cccn2)c1)C1CCCN1C(=O)c1ccsc1` (configuration not stated) the Potency was “inactive”.
For `Cc1ccc(C)c(N2CCN(C(=O)CN3CCSc4ccc(S(=O)(=O)N(C)C)cc43)CC2)c1`, the Potency was inconclusive: 17.8 µM [inhibitor, single point].
With `O=c1c2cccnc2n(Cc2ccccc2F)c(=O)n1Cc1ccccc1Cl` the Potency was inconclusive: 7.94 µM [inhibitor, partial curve].
With `Cc1cc(-c2nc(-c3c(C)noc3C)cc3c2cc(C)n3CCN(C)C)ccn1` the Potency was inconclusive: 2.24 µM [inhibitor, partial curve, poor fit].
In the case of `CN(C)Cc1cccc(-c2cc(-c3ccncc3)c3cncn3c2)c1`, the Potency was inconclusive: 2.82 µM [inhibitor, single point].
With `CS(=O)(=O)Nc1ccc(C2(C(=O)NCc3cccc(F)c3)CCCCC2)cc1` the Potency was “inactive”.
In the case of `O=C(c1ccccc1OCC1CCCN(Cc2ccsc2)C1)N1CCCC1` (configuration not stated), the Potency was “inactive”.
In the case of `CC(C)(O)CCc1ccc(C(=O)NCCSc2ccccn2)cc1`, the Potency was inconclusive: 0.398 µM [inhibitor, full curve, poor fit].
For `CC1=C(c2ccc(C)c(C)c2)S(=O)(=O)N=C1N1CCC(C(=O)NCCc2ccc(Cl)cc2)CC1`, the Potency was inconclusive: 11.2 µM [inhibitor, single point].
With `Cc1ccc(F)c(NC(=O)c2cc3c(N4CCSCC4)nc(C)cn3n2)c1` the Potency was inconclusive: 6.31 µM [inhibitor, partial curve, poor fit].
With `CCOc1ccc(NC(=O)N2CC=C(c3c[nH]c4ccccc34)CC2)cc1` the Potency was inconclusive: 11.2 µM [inhibitor, single point].
With `COc1ccc(-n2c(=O)c3c4c(sc3n(Cc3ccccc3)c2=O)CN(C(C)=O)CC4)cc1OC` the Potency was inconclusive: 12.6 µM [inhibitor, partial curve, poor fit].
With `COc1ccc(-c2nc(C3CC(=O)N(c4ccc(F)c(Cl)c4)C3)no2)c(OC)c1` (configuration not stated) the Potency was “inactive”.
For `COC1CCOC2(CCN(C(=O)CCn3nc(C)cc3C)CC2)C1` (configuration not stated), the Potency was inconclusive: 1.78 µM [inhibitor, full curve, poor fit].
For `Cc1noc2c(-c3ccnn3C)cc(-c3ccc(F)cc3)nc12`, the Potency was inconclusive: 3.16 µM [inhibitor, single point].
In the case of `COc1cccc2c1Oc1ncccc1N(C(=O)CCC(=O)NCc1ccc(N(C)C)cc1)C2`, the Potency was inconclusive: 10 µM [inhibitor, single point].
With `COc1ccc(N2Cc3c(NCc4ccc(F)cc4)ncnc3N(C)CC2=O)cc1` the Potency was “inactive”.
For `CCC(c1nc(-c2ccc(C)nn2)no1)n1cccn1` (configuration not stated), the Potency was “inactive”.
With `COc1ccc(C(=O)N2CCCC3(C2)NC(=O)N(Cc2ccc(Cl)cc2)C3=O)cc1` (configuration not stated) the Potency was inconclusive: 7.94 µM [inhibitor, single point].
With `CCN(CC)CCNC(=O)c1sc2nc3n(c(=O)c2c1C)CCCCC3` the Potency was inconclusive: 14.1 µM [inhibitor, partial curve, poor fit].
In the case of `COc1ccc(OCC2c3cc(OC)c(OC)cc3CCN2C(=O)c2ccc(F)cc2)cc1` (configuration not stated), the Potency was inconclusive: 10 µM [inhibitor, single point].
With `Cc1ccc(-c2cn3c(n2)sc2cc(C(=O)NCCCN4CCCCC4)ccc23)cc1` the Potency was active: 2.51 µM.
In the case of `CCOC(=O)c1c(C)oc2nc(C)nc(N3CCN(c4ccc(C(C)=O)cc4)CC3)c12`, the Potency was inconclusive: 11.2 µM [inhibitor, single point].
With `Cn1cccc1CN1CCC2(C1)C(=O)N(c1ccccc1)c1ccccc12` (configuration not stated) the Potency was inconclusive: 14.1 µM [inhibitor, single point].
With `Cc1ccc(OCCn2cc(C(=O)C3CCCCC3)c3ccccc32)cc1` the activity, negative = inhibition was inconclusive: -46.1% [inhibitor] [at 5.79 µM].
For `COc1cccc(CN2C(=O)OC3(CCN(Cc4ccncc4)CC3)C2(C)c2cccnc2)c1` (configuration not stated), the Potency was “inactive”.
For `O=C(c1ccc(C(F)(F)F)cc1)N1CC[C@H]2COC(=O)N2c2cc(F)ccc2C1`, the Potency was inconclusive: 31.6 µM [inhibitor, single point].
In the case of `CCN1CCN(c2cc(C)c3cc(NC(=O)c4cccc(C(F)(F)F)c4)ccc3n2)CC1`, the Potency was active: 5.62 µM.
With `Cc1ccc(C(=O)NC[C@H]2C[C@@H]3CCN2C[C@@H]3c2cc(-c3cccs3)nc(C)n2)cc1` the Potency was active: 7.08 µM.
With `CC1CCN(c2ccc(CNC(=O)CC3=C4CCCCC4N(C)C3=O)cc2)CC1` (configuration not stated) the Potency was active: 10 µM.
In the case of `CCS(=O)(=O)N1C[C@@H]2CN(Cc3ncc[nH]3)C[C@]2(C(=O)O)C1`, the Potency was “inactive”.
For `COCC(=O)N1[C@H]2CC[C@@H]1c1cnc(-c3ccccc3)nc1C2`, the Potency was “inactive”.
For `CCc1ccc(OCCCSc2nc(-c3ccc(C(C)(C)C)cc3)nc3cc(=O)[nH]n23)cc1`, the Potency was active: 11.2 µM.
With `CC(=O)c1ccc(N2CCN(S(=O)(=O)c3ccc4c(c3)CC(C)N4C(=O)C3CCC3)CC2)cc1` (configuration not stated) the Potency was inconclusive: 17.8 µM [inhibitor, single point].
With `CCN(CCNC(=O)C1Cn2cccc2C(=O)N1C)Cc1ccccc1` (configuration not stated) the Potency was inconclusive: 10 µM [inhibitor, single point].
For `COc1cccc(C(=O)Nc2ccc(Cl)c(-c3nc4ccccc4[nH]3)c2)c1`, the Potency was inconclusive: 11.2 µM [inhibitor, single point].
With `Cc1ccc(C2c3c(-c4ccccc4O)n[nH]c3C(=O)N2CCCO)cc1` (configuration not stated) the Potency was inconclusive: 8.91 µM [inhibitor, single point].
For `Cn1nnnc1SCCNCc1ccccc1OCc1ccccc1F`, the Potency was inconclusive: 7.08 µM [inhibitor, partial curve, poor fit].
With `COc1ccc(S(=O)(=O)Nc2ccc3n(c2=O)C[C@H]2C[C@@H]3CN(C(=O)Nc3cc(OC)cc(OC)c3)C2)cc1` the Potency was inconclusive: 12.6 µM [inhibitor, partial curve].
In the case of `COc1ccccc1OC1(C(=O)O)CCN(C(=O)CC2C=CCC2)CC1` (configuration not stated), the Potency was “inactive”.
For `CCn1ccc(C(=O)N2C[C@@H](Oc3cccnc3)C[C@H]2C(=O)NC)n1`, the Potency was “inactive”.
In the case of `Cn1cccc1CN1CCCC2(C1)C(=NC1CCCCC1)NC(=O)N2c1cccnc1` (configuration not stated), the Potency was inconclusive: 1.41 µM [inhibitor, full curve, poor fit].
With `CCc1ccc(S(=O)(=O)N2CCC3(CC2)C(=O)N(CC)c2ccccc23)cc1` the Potency was inconclusive: 20 µM [inhibitor, single point].
For `CC(C)=CCC1(CO)CCCN(Cc2cscn2)C1` (configuration not stated), the Potency was inconclusive: 11.2 µM [inhibitor, partial curve, poor fit].
For `CCc1nnc([C@@H]2CC(F)(F)CN2C(=O)CCn2nc(C)cc2C)o1`, the Potency was “inactive”.
In the case of `COc1cccc(Nc2cc3c(cn2)CN(Cc2ccncc2)CCN3)c1`, the Potency was inconclusive: 31.6 µM [inhibitor, single point].
For `CCn1ncc(CN2CC[C@@H]3C(=O)NCCCCCCN(Cc4ccncc4)[C@@H]3C2)c1C`, the Potency was inconclusive: 11.2 µM [inhibitor, single point].
For `Cc1ccc(Cn2c(=O)n(-c3ccccc3)c(=O)c3ccc(C(=O)NCc4ccco4)cc32)cc1`, the Potency was “inactive”.
In the case of `C=Cc1ccc(Cn2c(C(=O)O)c(CNCc3cccs3)c3ccc(C)cc32)cc1`, the Potency was inconclusive: 17.8 µM [inhibitor, single point].
In the case of `COc1cccc(OCC(=O)c2ccc3c(c2)N(C(C)C(=O)NCCc2ccccc2)C(=O)CO3)c1` (configuration not stated), the Potency was inconclusive: 3.16 µM [inhibitor, single point].
For `CC(=O)c1ccc(NS(=O)(=O)c2cc(-c3cnc(C4CC4)o3)ccc2C)cc1`, the Potency was inconclusive: 10 µM [inhibitor, single point].
For `Cc1ccc(S(=O)(=O)c2cn(C)c3cc(N4CCCCCC4)c(F)cc3c2=O)cc1`, the Potency was inconclusive: 11.2 µM [inhibitor, partial curve].
With `CN(C)[C@@H]1CN(C(=O)c2ccc(F)cc2F)C[C@H]1CO` the Potency was “inactive”.
For `Cc1ncc2c(n1)C[C@@H]1CC[C@H]2N1C(=O)c1ccsc1`, the Potency was “inactive”.
With `O=C(c1ccc2c(Cl)c3c(nc2c1)CCCC3)N1CCN(c2cccc(C(F)(F)F)c2)CC1` the Potency was inconclusive: 1.12 µM [inhibitor, partial curve].
With `Cc1ccc(N2CCN(C(=O)c3cnn(-c4ccc(C)c(C)c4)c3C3CCNCC3)CC2)c(C)c1` the Potency was active: 5.62 µM.
For `O=C(c1ccc(F)cc1)N1C[C@@H]2C[C@H](C1)c1ccc(-c3cncnc3)c(=O)n1C2`, the Potency was “inactive”.
With `Cc1ccc(-n2ncc3c(NC4CCCCC4)ncnc32)cc1Cl` the Potency was inconclusive: 15.8 µM [inhibitor, single point].
In the case of `CN(Cc1ccccc1CN1CCCC1)c1nccc(-c2ccccn2)n1`, the Potency was active: 3.55 µM.
For `Cc1cnc(CCNC(=O)c2ccc(C#N)cc2)n1C1CC1`, the Potency was inconclusive: 3.98 µM [inhibitor, partial curve].
In the case of `CCN(CC)C(=O)[C@@H]1CCCN1[C@@H](C(=O)NC)C1CC1`, the Potency was “inactive”.
For `COc1ccc(C(=O)N2[C@@H]3CC[C@H]2CC(NC(=O)c2ccncc2)C3)cc1OC` (some centres not stated), the Potency was “inactive”.
With `CC(=O)Nc1ccc(C(=O)N2CCC3(CC2)N=C(c2cccc(Br)c2)NO3)cc1` the Potency was active: 11.2 µM.
With `CC1CCN(C(=O)c2cc3c(s2)CCC(C(=O)NCCCN2CCOCC2)C3)CC1` (configuration not stated) the Potency was inconclusive: 1.26 µM [inhibitor, full curve].
For `COc1cc2c(cc1OCc1ccccc1)N([S+](=O)([O-])c1ccc3c(c1)CCO3)CC21CCN(C)CC1`, the Potency was active: 3.55 µM.
In the case of `CCc1ccc(Nc2sc(C(=O)c3ccc(F)cc3)c(N)c2S(=O)(=O)c2ccccc2)cc1`, the Potency was active: 8.91 µM.
For `O=C(O)C1CCc2nnc(C3CCN(C(=O)c4ccc5c(c4)OC(F)(F)O5)C3)n21` (configuration not stated), the Potency was “inactive”.
